# Experimental data: PubChem BioAssay (Tox21)
# The inconclusive results got no clear call from the source; some entries with a clear call stand among them for comparison. For part of these data: Potencies of inconclusive entries are left out as doubtful fits. The source made the active and inactive calls. Unless noted, calls follow the shape of the dose curve; as a rule, active = well fitted curve in the direction sought with a large enough effect in the repeat runs; inconclusive = weak or mixed curves; inactive = no such curve, though single readings can be large; an effect the other way counts as inactive or inconclusive.
# How the values were obtained:
# [1] = biological target: Peroxisome proliferator-activated receptor delta (Homo sapiens) (UniProt Q03181); experiment: qHTS assay to identify small molecule antagonists of the peroxisome proliferator-activated receptor delta (PPARd) signaling pathway (AID 743215; active = well fitted inhibition curve with a large enough effect in the signal ratio in the repeat runs, not every such curve was filed as active; inconclusive = weak or mixed curves, or effect the other way; inactive = no such curve, though single readings can be large or run the other way; the % refers to the signal ratio;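 also: cells stimulated with agonist L165041 at 300 nM final during compound exposure; % is scaled to controls: 0 for no effect and ±100 for the full control effect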); conditions: HEK293H PPARd-UAS-bla, beta-lactamase FRET ratio, antagonist, 17 h; ratio activity, negative = inhibition: at 62 µM (top of the series) unless noted
# Summary of the method: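 Agonist L165041 (300 nM final) added with compound to PPARd-bla HEK293H UAS-bla reporter cells; 17 h incubation at 37 C. Read-out: LiveBLAzer FRET substrate, 2 h at room temperature, fluorescence intensity.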
# [2] = qHTS assay to identify small molecule agonists of the retinoic acid receptor (RAR) signaling pathway (AID 1159553); conditions: C3RL4 RARE luciferase reporter, agonist, 6 h; activation: at 73.3 µM (top of the series) unless noted; also: potency is read from the fitted curve at half-maximal effect; as to activation: % is scaled to controls: 0 for no effect and ±100 for the full control effect
# Summary of the method: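 Luminescence was measured 30 min after luciferase reagent addition at room temperature. Before that, C3RL4 reporter cells (1,000 per well, plated overnight) were treated with compound for 6 hr at 37 C and 5% CO2.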
# [3] = qHTS RealTime-Glo MT Cell Viability Assay in HEK293 cells - 32 hour (AID 1224868); also: nearly all actives have a fitted effect of over 50% in size; also: potency is read from the fitted curve at half-maximal effect
# Summary of the method: (§1)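 HEK293 cells seeded with NanoLuc/prosubstrate reagent, rested 5 h at 37 C, then dosed and kept at 37 C up to 40 h. Nonlytic real-time luminescence from viable cells read at 0, 8, 16, 24, 32 and 40 h.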
# [4] = Caspase-3/7 induction in CHO-K1 cells by small molecules, qHTS cell viability counter screen (AID 1346979); also: potency is read from the fitted curve at half-maximal effect; nearly all actives have a fitted effect of over 35% in size
# Summary of the method: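 Wild-type CHO-K1 cells were seeded at 1,500 per well, rested 5hr at 37 C, then exposed to compounds in DMSO. After 16hr, CellTiter-Fluor reagent was added and fluorescence read 1hr later as the viability measure.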
# [5] = qHTS assay for small molecule agonists of the p53 signaling pathway (AID 651631; calls by dose curve; also: % is scaled to controls: 0 for no effect and ±100 for the full control effect; nearly all actives have a fitted effect of over 15% in size); conditions: HCT-116 p53RE-bla reporter, beta-lactamase FRET ratio, 16 h; activation: at 73.3 µM (top of the series) unless noted
# Summary of the method: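 HCT-116 cells carrying a stable p53 response element–beta-lactamase reporter were plated, rested 5 h at 37 °C, then exposed to compound in DMSO for 16 h at 37 °C; reporter activity was read as FRET substrate fluorescence after 2 h at room temperature.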
# [6] = qHTS assay to identify small molecule antagonists of the peroxisome proliferator-activated receptor delta (PPARd) signaling pathway - cell viability counter screen (AID 743213); conditions: PPARd-bla HEK293H viability, CellTiter-Glo luminescence, 17 h; viability change, negative = cytotoxic: at 62 µM (top of the series) unless noted; also: potency is read from the fitted curve at half-maximal effect; nearly all actives have a fitted effect of over 50% in size
# Summary of the method: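 PPARd-bla HEK293H cells (3000/well) got compound plus 300 nM L165041 agonist for 17 h at 37 C. Viability in the same wells came from CellTiter-Glo luminescence after 30 min at room temperature.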
# [7] = qHTS assay to identify small molecule antagonists of the estrogen related receptor (ERR) signaling pathway from Tox21 library - cell viability counter screen (AID 1224834); also: potency is read from the fitted curve at half-maximal effect; nearly all actives have a fitted effect of over 30% in size
# Summary of the method: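 CellTiter-Fluor fluorescence, read after 30 min at 37 C, measures viability of ERR cells. Cells plated at 2,000/well and incubated 6 h before pin-tool compound addition, then exposed 17.5 hours at 37 C.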
# [8] = qHTS assay to identify small molecule agonists of H2AX - cell viability counter screen (AID 1224847; calls by dose curve; also: top concentration of the series differs between compounds; % is scaled to controls: 0 for no effect and ±100 for the full control effect; nearly all actives have a fitted effect of over 30% in size)
# Summary of the method: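 Wild-type CHO-K1 cells (10% FBS medium) were plated overnight at 37C, exposed to compounds at 15 concentrations for 3 hr at 37C (0.76% DMSO final), and viability was read as CellTiter-Glo luminescence after 30 min at room temperature.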
# [9] = biological target: Nuclear receptor subfamily 1 group I member 2 (Homo sapiens) (UniProt O75469); experiment: Human pregnane X receptor (PXR) small molecule agonists, qHTS assay (AID 1346982); also: potency is read from the fitted curve at half-maximal effect; nearly all actives have a fitted effect of over 35% in size
# Summary of the method: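 Agonist mode: luminescence from ONE-Glo after 24 h compound exposure at 37C in HepG2 cells carrying hPXR-responsive CYP3A4 luciferase, plated in charcoal-stripped serum medium 5 h beforehand.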
# [10] = qHTS RealTime-Glo MT Cell Viability Assay in HEK293 cells - 16 hour (AID 1224872); also: potency is read from the fitted curve at half-maximal effect; nearly all actives have a fitted effect of over 50% in size
# Summary of the method: as §1
# [11] = biological target: Estrogen receptor beta (Homo sapiens) (UniProt Q92731); experiment: qHTS assay to identify small molecule agonists of the estrogen receptor beta (ER-beta) signaling pathway (AID 1259377; active = well fitted activation curve with a large enough effect in the signal ratio in the repeat runs, not every such curve was filed as active; inconclusive = weak or mixed curves, or effect the other way; the % refers to the signal ratio; also: % is scaled to controls: 0 for no effect and ±100 for the full control effect); conditions: ER-beta-UAS-bla HEK293T, beta-lactamase FRET ratio, 16 h; activation: at 92.4 µM (top of the series) unless noted
# Summary of the method: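 ER-beta-UAS-bla HEK293T (GripTite) cells carrying a UAS-driven beta-lactamase reporter, in medium with 2% charcoal-stripped FBS, were exposed to compounds for 16 hr at 37C; LiveBLAzer B/G FRET substrate was then added and fluorescence read after 2 hours at room temperature.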
# [12] = qHTS assay for identifying genotoxic compounds that show differential cytotoxicity against isogenic chicken DT40 cell lines with known DNA damage response pathways - wild type cell line (AID 743012); conditions: DT40 wild type chicken cells viability, CellTiter-Glo, 40 h; activity change, negative = cytotoxicity: at 68.4 µM (top of the series) unless noted; also: % is scaled to controls: 0 for no effect and ±100 for the full control effect; nearly all actives have a fitted effect of over 60% in size
# Summary of the method: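 Viability by ATP luminescence (CellTiter-Glo, 30 min RT) after 40 h compound treatment at 37 C/5% CO2, using 300 parental DNA repair-proficient DT40 cells per well.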
# [13] = qHTS assay to identify small molecule agonists of the vitamin D receptor (VDR) signaling pathway - cell viability counter screen (AID 743224); also: % is scaled to controls: 0 for no effect and ±100 for the full control effect; nearly all actives have a fitted effect of over 50% in size
# Summary of the method: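 Counter screen run in the same wells as the VDR-bla reporter assay: CellTiter-Glo luminescence, 30 min at room temperature, after 16 h compound treatment at 37C of cells pre-plated for 4 h.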
# [14] = biological target: Thyrotropin receptor (Homo sapiens) (UniProt P16473); experiment: qHTS assay to identify small molecule agonists of the thyroid stimulating hormone receptor (TSHR) signaling pathway (AID 1224843; calls by dose curve; also: % is scaled to controls: 0 for no effect and ±100 for the full control effect; nearly all actives have a fitted effect of over 45% in size); conditions: TSHR-HEK293 cells, cAMP HTRF, agonist mode, 30 min; activation: at 92.4 µM (top of the series) unless noted
# Summary of the method: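 Agonist activity read as cAMP rise via d2/cryptate HTRF competition, 1 h room-temperature detection, in HEK293 cells expressing TSHR. Fifteen-point titrations, each run in triplicate, with a 30 min room-temperature incubation beforehand.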
# Tags tell the direction and shape of the fitted curve.
# Chain of UniProt O75469 (O75469 whole entry, looked up): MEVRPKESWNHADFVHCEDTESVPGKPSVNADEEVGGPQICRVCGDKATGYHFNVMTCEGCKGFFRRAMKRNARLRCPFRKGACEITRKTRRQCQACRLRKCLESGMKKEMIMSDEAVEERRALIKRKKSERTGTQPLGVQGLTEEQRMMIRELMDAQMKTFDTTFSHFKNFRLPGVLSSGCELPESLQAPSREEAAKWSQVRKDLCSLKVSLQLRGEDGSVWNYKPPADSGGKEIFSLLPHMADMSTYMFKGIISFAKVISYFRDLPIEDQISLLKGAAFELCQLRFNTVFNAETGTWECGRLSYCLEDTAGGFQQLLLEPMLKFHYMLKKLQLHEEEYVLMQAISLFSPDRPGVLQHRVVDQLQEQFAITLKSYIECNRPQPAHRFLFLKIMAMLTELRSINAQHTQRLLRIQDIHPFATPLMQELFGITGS
# Chain of UniProt Q03181 (Q03181 whole entry, looked up): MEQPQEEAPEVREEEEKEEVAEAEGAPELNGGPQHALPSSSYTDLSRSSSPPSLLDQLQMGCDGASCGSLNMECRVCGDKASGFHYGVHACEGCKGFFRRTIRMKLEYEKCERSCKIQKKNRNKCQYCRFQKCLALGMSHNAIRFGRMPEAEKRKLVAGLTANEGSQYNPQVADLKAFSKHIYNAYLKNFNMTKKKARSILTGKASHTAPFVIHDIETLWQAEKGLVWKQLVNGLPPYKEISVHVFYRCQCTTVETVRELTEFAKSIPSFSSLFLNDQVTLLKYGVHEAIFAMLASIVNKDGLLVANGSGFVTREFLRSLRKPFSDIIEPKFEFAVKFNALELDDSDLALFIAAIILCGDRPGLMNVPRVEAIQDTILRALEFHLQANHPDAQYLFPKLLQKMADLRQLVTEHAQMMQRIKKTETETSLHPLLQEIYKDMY
# Chain of UniProt P16473 (P16473 whole entry, looked up): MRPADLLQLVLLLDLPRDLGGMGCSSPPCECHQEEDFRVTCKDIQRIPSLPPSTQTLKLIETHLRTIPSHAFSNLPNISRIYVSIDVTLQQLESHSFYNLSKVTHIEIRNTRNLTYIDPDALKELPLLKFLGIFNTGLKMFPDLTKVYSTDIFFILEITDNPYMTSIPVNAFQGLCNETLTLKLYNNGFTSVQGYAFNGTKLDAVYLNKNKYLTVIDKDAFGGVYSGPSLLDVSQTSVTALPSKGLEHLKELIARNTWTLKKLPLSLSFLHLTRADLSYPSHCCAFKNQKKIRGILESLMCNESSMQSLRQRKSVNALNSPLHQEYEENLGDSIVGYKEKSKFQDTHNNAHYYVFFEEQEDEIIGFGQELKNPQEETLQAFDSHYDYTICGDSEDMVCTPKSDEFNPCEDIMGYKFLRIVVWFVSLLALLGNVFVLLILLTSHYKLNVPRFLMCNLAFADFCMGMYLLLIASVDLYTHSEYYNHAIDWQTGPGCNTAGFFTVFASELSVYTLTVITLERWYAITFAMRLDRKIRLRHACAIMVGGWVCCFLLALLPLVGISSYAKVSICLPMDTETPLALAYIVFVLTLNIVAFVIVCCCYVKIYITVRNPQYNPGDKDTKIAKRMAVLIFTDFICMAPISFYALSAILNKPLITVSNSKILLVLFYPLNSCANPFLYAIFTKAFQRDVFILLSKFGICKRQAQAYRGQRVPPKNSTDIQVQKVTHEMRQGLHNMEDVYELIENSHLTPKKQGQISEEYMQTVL
# Chain of UniProt Q92731 (Q92731 whole entry, looked up): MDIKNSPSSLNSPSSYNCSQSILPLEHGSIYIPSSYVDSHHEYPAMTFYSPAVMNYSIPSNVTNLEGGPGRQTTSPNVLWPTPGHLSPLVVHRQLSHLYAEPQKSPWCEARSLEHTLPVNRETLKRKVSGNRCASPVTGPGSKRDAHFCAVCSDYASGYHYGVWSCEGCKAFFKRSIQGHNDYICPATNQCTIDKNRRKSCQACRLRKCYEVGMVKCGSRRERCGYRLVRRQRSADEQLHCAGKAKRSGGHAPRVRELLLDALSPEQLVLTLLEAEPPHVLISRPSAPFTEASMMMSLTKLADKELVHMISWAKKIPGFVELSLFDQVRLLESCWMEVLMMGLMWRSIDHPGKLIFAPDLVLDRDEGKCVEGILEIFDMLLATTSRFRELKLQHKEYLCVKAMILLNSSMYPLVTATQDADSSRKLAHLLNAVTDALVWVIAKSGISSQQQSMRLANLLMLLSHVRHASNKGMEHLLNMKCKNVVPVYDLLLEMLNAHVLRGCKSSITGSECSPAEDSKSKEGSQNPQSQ
smiles,measurement,setting,value
C[C@]12CC[C@H]3[C@@H](CCC4=CC(=O)CC[C@@]43C)[C@@H]1CC[C@@H]2C(=O)O,"ratio activity, negative = inhibition",[1],inconclusive: 11%
same,Potency,[2],inactive
same,Potency,[3],inactive
same,Potency,[4],"inconclusive [rising, partial curve]"
COc1cc(CC(C)N)c(OC)cc1Br (stereo not drawn),Potency,[5],inactive
same,Potency,[6],"inconclusive [cytotoxic, full curve]"
same,Potency,[1],inactive
same,Potency,[2],"inconclusive [inhibitor, single point]"
same,Potency,[7],"inconclusive [cytotoxic, single point]"
same,Potency,[8],inactive
same,Potency,[3],"inconclusive [cytotoxic, partial curve]"
same,Potency,[9],"inconclusive [activator, partial curve, poor fit]"
CCNc1nc(NC(C)C(C)C)nc(SC)n1 (stereo not drawn),Potency,[10],"inconclusive [cytotoxic, partial curve, poor fit]"
same,Potency,[11],inactive
CC(C=O)Cc1ccc2c(c1)OCO2 (stereo not drawn),Potency,[12],inactive
same,Potency,[13],inactive
same,Potency,[14],inactive
same,Potency,[9],"inconclusive [activator, partial curve, poor fit]"
